The other results are listed elsewhere or left out. The energies were worked out here from pooled read counts, against the library average; single values are noisy.
Target: T1, Pho4 (S. cerevisiae) (UniProt P07270)
T1 sequence: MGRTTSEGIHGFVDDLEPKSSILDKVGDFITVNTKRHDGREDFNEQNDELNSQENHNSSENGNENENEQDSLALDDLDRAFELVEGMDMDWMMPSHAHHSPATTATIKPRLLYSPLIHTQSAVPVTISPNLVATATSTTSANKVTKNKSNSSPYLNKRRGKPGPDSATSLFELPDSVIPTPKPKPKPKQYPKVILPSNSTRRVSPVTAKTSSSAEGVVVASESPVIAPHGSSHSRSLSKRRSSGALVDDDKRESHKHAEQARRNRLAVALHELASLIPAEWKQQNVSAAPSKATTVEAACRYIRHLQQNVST
Experiment: relative binding free energy (BET-seq); higher = weaker binding
Conditions: reference: library average

Sequence | relative binding free energy
GAGTTCACGTGGCGTA | 0.28 kcal/mol
GGTGGCACGTGATTAG | 0.1 kcal/mol
TTGGACACGTGAAGTC | 0.3 kcal/mol
GTTAGCACGTGTCGTG | -0.05 kcal/mol
AAATGCACGTGTTCAT | 0.09 kcal/mol
GATGACACGTGGAAGG | 0.19 kcal/mol
GTTTTCACGTGGTGTG | 0.27 kcal/mol
TATATCACGTGAAGAA | 0.45 kcal/mol
GTCTTCACGTGTGAAG | 0.34 kcal/mol
AGAGTCACGTGGTTTT | 0.17 kcal/mol
TAGGTCACGTGGTGTT | 0.09 kcal/mol
CATTGCACGTGGAGGT | -0.04 kcal/mol
GGTTTCACGTGGCGTC | 0.24 kcal/mol
CAGGGCACGTGGCTTG | -0.13 kcal/mol
GCTGTCACGTGCGGTT | 0.03 kcal/mol
GTAGACACGTGGGGCA | -0.19 kcal/mol
CATAACACGTGGTTTG | -0.06 kcal/mol
AGTTGCACGTGTCGGT | 0.14 kcal/mol
TAGTGCACGTGTGAGG | -0.05 kcal/mol
GGGATCACGTGTCAGG | 0.28 kcal/mol
ATAGGCACGTGACTGG | -0.03 kcal/mol
GCCTGCACGTGGGGTT | -0.2 kcal/mol
GGGTGCACGTGCGCCG | -0.15 kcal/mol

Sequence | relative binding free energy
TGGTTCACGTGCGATG | 0.28 kcal/mol
TTTTGCACGTGTGGCG | 0.06 kcal/mol
ACGGTCACGTGATGTA | 0.19 kcal/mol
GGTTACACGTGACGGT | 0.07 kcal/mol
TGATTCACGTGCAGTA | 0.23 kcal/mol
TAGTGCACGTGGTGCG | -0.07 kcal/mol
AGGCTCACGTGTGGGA | 0.27 kcal/mol
TGAGCCACGTGTTGGT | -0.12 kcal/mol
ATTAACACGTGATAGT | 0.1 kcal/mol
AGCTTCACGTGGGAAT | 0.2 kcal/mol
GAGCACACGTGGTAGG | 0.1 kcal/mol
GGTCACACGTGTTTTG | 0.2 kcal/mol
TTGATCACGTGCTGTA | 0.13 kcal/mol
AGTATCACGTGGTATG | 0.08 kcal/mol
ATGGACACGTGGTGTT | 0.07 kcal/mol
TGGTGCACGTGCAAGT | 0.12 kcal/mol
TAGGGCACGTGTAAGC | 0.01 kcal/mol
TTTTACACGTGAAGGG | 0.35 kcal/mol
TGTAACACGTGATGGG | 0.16 kcal/mol
GTTTCCACGTGGTTAA | 0.11 kcal/mol
TGGGACACGTGGCTGT | 0.04 kcal/mol
AGTAGCACGTGCGGAG | -0.1 kcal/mol
TTTTCCACGTGTCATG | 0.15 kcal/mol

Sequence | relative binding free energy
ATTAACACGTGTGGAG | -0.05 kcal/mol
AGGGACACGTGTGAAT | 0.2 kcal/mol
TGGTGCACGTGCGTAA | -0.15 kcal/mol
ATAGACACGTGTAGTG | 0.06 kcal/mol
CGGGGCACGTGGCTGC | -0.18 kcal/mol
CAAATCACGTGGTGGG | 0.2 kcal/mol
AGTTTCACGTGTTGGC | 0.39 kcal/mol
ACATTCACGTGGTTTT | 0.13 kcal/mol
ATGTCCACGTGTTTTT | 0.07 kcal/mol
ATCTTCACGTGTGTGA | 0.16 kcal/mol
AGGTACACGTGAATGA | 0.24 kcal/mol
GGTTACACGTGAAGGG | 0.32 kcal/mol
GTTGTCACGTGTAAAT | 0.1 kcal/mol
AGTGTCACGTGAATTT | 0.18 kcal/mol
TGGTACACGTGGTTAT | 0.07 kcal/mol
GTCTACACGTGTGTGA | 0.24 kcal/mol
ACGTTCACGTGAAGTT | 0.3 kcal/mol
TATTTCACGTGTTCAT | 0.21 kcal/mol
TGAGACACGTGTCTTT | 0.05 kcal/mol
CTGTGCACGTGTTGTT | -0.07 kcal/mol
GCAGGCACGTGTTGGG | -0.1 kcal/mol
TATATCACGTGACGGT | 0.28 kcal/mol
GATGTCACGTGAAGTG | 0.18 kcal/mol

Sequence | relative binding free energy
TGACTCACGTGCGGGG | 0.02 kcal/mol
GGCTGCACGTGAGTGG | 0.17 kcal/mol
ATGGGCACGTGTCATA | -0.12 kcal/mol
GTAGTCACGTGTGAGT | 0.11 kcal/mol
TCATTCACGTGGTTAG | 0.21 kcal/mol
TTAGTCACGTGGTCTT | -0.05 kcal/mol
GGAGGCACGTGTGTGT | 0.09 kcal/mol
GAGAGCACGTGGTGAT | -0.12 kcal/mol
ATAGGCACGTGACGTG | -0.17 kcal/mol
GGGTGCACGTGCGCGT | -0.17 kcal/mol
TGTGGCACGTGATGTC | 0.02 kcal/mol
GATGCCACGTGGTAGG | 0.06 kcal/mol
CAAGTCACGTGGTAGG | 0.05 kcal/mol
ATTATCACGTGGAAGT | 0.29 kcal/mol
TAGCGCACGTGATAGT | -0.02 kcal/mol
AGTGGCACGTGCTCAG | -0.08 kcal/mol
ATTGGCACGTGGAGTG | -0.06 kcal/mol
TGGTGCACGTGCGGTG | -0.03 kcal/mol
GGTAACACGTGTAAGA | 0.26 kcal/mol
GGCAGCACGTGGGTGA | -0.2 kcal/mol
AGTCTCACGTGTTGTC | 0.32 kcal/mol
ACTGACACGTGGCGGG | -0.01 kcal/mol
TGTATCACGTGCAGAG | 0.15 kcal/mol

Sequence | relative binding free energy
AATAACACGTGGGGGC | -0.02 kcal/mol
GGATGCACGTGATATG | 0.14 kcal/mol
TGGTTCACGTGATCCG | 0.31 kcal/mol
GTGGGCACGTGGGTCC | -0.13 kcal/mol
AGTAACACGTGTAGAG | 0.06 kcal/mol
CTGGTCACGTGTGTCT | 0.24 kcal/mol
GGGCCCACGTGTGTGT | -0.06 kcal/mol
CGATACACGTGGGTGT | -0.16 kcal/mol
GGGGTCACGTGGTAAT | 0.19 kcal/mol
TCGTACACGTGTGTGT | 0.05 kcal/mol
CGTTGCACGTGCATGG | -0.13 kcal/mol
AGTGTCACGTGGTAGA | 0.1 kcal/mol
CTAGGCACGTGGCGTT | -0.06 kcal/mol
AGTGGCACGTGATTCT | -0.05 kcal/mol
GTGGTCACGTGGGCAG | 0.08 kcal/mol
TAGTTCACGTGGTATG | 0.22 kcal/mol
AGTAGCACGTGGAAGG | -0.14 kcal/mol
AATGCCACGTGATGTG | 0.03 kcal/mol
TATAGCACGTGTACTG | 0.11 kcal/mol
TGGGTCACGTGATATA | 0.19 kcal/mol
TTTGACACGTGCTCTG | 0.05 kcal/mol
TTTAACACGTGATGGT | 0.12 kcal/mol
TGAATCACGTGTAAGG | 0.16 kcal/mol
